Results on 153 variants are retold here after a collection of fitness landscapes (doi:10.1126/science.1257360).

Some of the results follow.

B1: PhoQ; a variant is named by its letters at X, in order, P23837 (parent)
chain: MKKLLRLFFPLSLRVRFLLATAAVVLVLSLAYGMVALIGYSVSFDKTTFRLLRGESNLFYTLAKWENNKLHVELPENIDKQSPTMTLIYDENGQLLWAQRDVPWLMKMIQPDWLKSNGFHEIEADVNDTSLLLSGDHSIQQQLQEVREDDDDAEMTHSVAVNVYPATSRMPKLTIVVVDTIPVELKSSYMVWSWFIYVLSANLLLVIPLLWVAAWWSLRPIEALAKEVRELEEHNRELLNPATTRELTSLVRNLNRLLKSERERYDKYRTTLTDLTHSLKTPLXXLQXXLRSLRSEKMSVSDAEPVMLEQISRISQQIGYYLHRASMRGGTLLSRELHPVAPLLDNLTSALNKVYQRKGVNISLDISPEISFVGEQNDFVEVMGNVLDNACKYCLEFVEISARQTDEHLYIVVEDDGPGIPLSKREVIFDRGQRVDTLRPGQGVGLAVAREITEQYEGKIVAGESMLGGARMEVIFGRQHSAPKDE

The variants in this assay derive from B1. In words: enrichment ratio after two sorts for PhoP signalling (ratio (wild type AVST 3.29)); higher = more functional. The settings on record: with PhoP (E. coli).
For NSWR, the enrichment ratio was no more than 0.25.
The result for LPTT reads no more than 0.25; that for RLKA, no more than 0.25.
The result for FLHG reads no more than 0.25; that for FNTS, no more than 0.25; that for FSHK, no more than 0.25.
Under KRNF stands no more than 0.25; under SNLW, 7.18; under IIRC, no more than 0.25.
In the case of ESRV, the enrichment ratio is no more than 0.25.
Under LLGP stands no more than 0.25.
The result for NAWL reads no more than 0.25; that for DDWE, no more than 0.25; that for YESA, no more than 0.25.
Under DDQC stands no more than 0.25; under ESKN, no more than 0.25.
Regarding VWMF, the enrichment ratio was no more than 0.25.
As for NRIL, the enrichment ratio was no more than 0.25.
The result for YKPD reads no more than 0.25; that for LDSY, no more than 0.25.
The result for RPVH reads no more than 0.25; that for HQFW, no more than 0.25.
Turning to FALP, the enrichment ratio was no more than 0.25.
The result for FKNM reads no more than 0.25.
Under FATR stands no more than 0.25; under DQNW, no more than 0.25; under HQCQ, no more than 0.25.
Take PEYG: the enrichment ratio was no more than 0.25.
As to PLWC, the enrichment ratio is no more than 0.25.
For the variant MSHD, the enrichment ratio is no more than 0.25.
Regarding ENFS, the enrichment ratio was no more than 0.25.
Under AYLP stands no more than 0.25; under TCPL, no more than 0.25; under RGRW, no more than 0.25.
Under YNRQ stands no more than 0.25; under DQST, no more than 0.25.
The result for FHET reads no more than 0.25; that for WRFD, no more than 0.25.
Consider DTSV, for which the enrichment ratio was no more than 0.25.
On to YTSA, for which the enrichment ratio was no more than 0.25.
Regarding PYHR, the enrichment ratio was no more than 0.25.
Under WRSV stands no more than 0.25; under LYLH, no more than 0.25.
As to VIYA, the enrichment ratio is no more than 0.25.
Under LIAY stands no more than 0.25; under ARCM, 8.7; under KLSP, no more than 0.25.
The result for YHQK reads no more than 0.25; that for WNNI, no more than 0.25; that for APSM, no more than 0.25.
On to MMRI, for which the enrichment ratio is no more than 0.25.
The result for EYAK reads no more than 0.25.
For LENI, the enrichment ratio is no more than 0.25.
The result for IIDP reads no more than 0.25; that for LAET, no more than 0.25.
For QGVN, the enrichment ratio is no more than 0.25.
Regarding GWFK, the enrichment ratio was no more than 0.25.
The result for KRQM reads no more than 0.25; that for AQFQ, no more than 0.25.
As for LFRK, the enrichment ratio is no more than 0.25.
IHEP: the enrichment ratio was no more than 0.25.
The result for SWVV reads no more than 0.25; that for RQPF, no more than 0.25.
The result for VNWD reads no more than 0.25; that for QKHM, no more than 0.25.
Under FEGF stands no more than 0.25.
For WDQW, the enrichment ratio was no more than 0.25.
Under LLFF stands no more than 0.25.
For VWLH, the enrichment ratio was no more than 0.25.
Under PPDW stands no more than 0.25.
Under LAWA stands no more than 0.25.
As for GLPE, the enrichment ratio is no more than 0.25.
The result for NFIN reads no more than 0.25.
In the case of WEKS, the enrichment ratio was no more than 0.25.
The result for TFMC reads 16.5.
Under PNYC stands no more than 0.25; under APSI, no more than 0.25; under TMKL, no more than 0.25.
Under HFLK stands no more than 0.25; under QFYA, no more than 0.25.
Take IWAM: the enrichment ratio was no more than 0.25.
The result for FRLR reads no more than 0.25; that for MEND, no more than 0.25.
The result for GPTR reads no more than 0.25.
With KMHW, the enrichment ratio was no more than 0.25.
Under AWLN stands no more than 0.25; under KPCM, no more than 0.25; under ADPF, no more than 0.25.
Under KHMC stands no more than 0.25.
The result for SREE reads no more than 0.25.
Regarding HCAH, the enrichment ratio is no more than 0.25.
For the variant DWVI, the enrichment ratio is no more than 0.25.
Under QQDP stands no more than 0.25.
Under LRSG stands no more than 0.25; under ATPK, no more than 0.25.
Under IALH stands no more than 0.25; under RKRA, no more than 0.25.
For MNHE, the enrichment ratio is no more than 0.25.
The result for AKMH reads 12; that for SHWP, no more than 0.25.
Regarding SQKR, the enrichment ratio was no more than 0.25.
For LAWW, the enrichment ratio was no more than 0.25.
For the variant SVFK, the enrichment ratio was no more than 0.25.
The result for FECH reads 5.62; that for HSKF, no more than 0.25.
The result for IRQM reads no more than 0.25; that for SDLD, no more than 0.25; that for HNPL, no more than 0.25.
Take VQSI: the enrichment ratio was no more than 0.25.
Under QYPA stands no more than 0.25.
Under LYGP stands no more than 0.25; under HGSR, no more than 0.25; under PKKS, no more than 0.25.
Under SAAV stands 8.96; under MAHM, 14.7.
For the variant VTFG, the enrichment ratio is no more than 0.25.
For ITPP, the enrichment ratio is no more than 0.25.
Under ESSY stands no more than 0.25; under WPNV, no more than 0.25; under GFRM, no more than 0.25.
Under INLR stands no more than 0.25.
Under KPPL stands no more than 0.25; under MNGR, no more than 0.25.
VKDW: the enrichment ratio is no more than 0.25.
Turning to PPSD, the enrichment ratio was no more than 0.25.
Under AWPV stands no more than 0.25.
Take DIQS: the enrichment ratio was no more than 0.25.
IYPQ: the enrichment ratio was no more than 0.25.
On to DVVG, for which the enrichment ratio was no more than 0.25.
The result for PMTL reads no more than 0.25.
The result for SEGP reads no more than 0.25.
With AWCA, the enrichment ratio is no more than 0.25.
Take GSMN: the enrichment ratio was determined as 1.58.
Under NPQS stands no more than 0.25; under QNTF, no more than 0.25.
Under LQYK stands no more than 0.25; under TPYK, no more than 0.25.
For the variant NDRM, the enrichment ratio is no more than 0.25.
Take LMAF: the enrichment ratio is no more than 0.25.
In the case of QEVD, the enrichment ratio is no more than 0.25.
Regarding LWRS, the enrichment ratio is no more than 0.25.
Consider HECT, for which the enrichment ratio came out at 26.3.
Turning to RCHF, the enrichment ratio is no more than 0.25.
As to YPPW, the enrichment ratio is no more than 0.25.
The result for RKCQ reads no more than 0.25; that for HSCW, no more than 0.25.
In the case of RVGS, the enrichment ratio was no more than 0.25.
For PQRL, the enrichment ratio is no more than 0.25.
In the case of APST, the enrichment ratio is no more than 0.25.
In the case of APHI, the enrichment ratio was no more than 0.25.
The result for IKQR reads no more than 0.25.
For the variant KIAP, the enrichment ratio is no more than 0.25.
Regarding GNSS, the enrichment ratio is 5.64.
